PMC4336329 (PLoS ONE, 2015)
Out of some 310,000 compounds screened, about 2,200 (0.71%) showed an effect of 50% or more. The effect is printed as a negative number. The list shows a part of the results.

target: human ether-à-go-go-related gene (hERG) potassium channel (human, UniProt Q12809); assay: primary screen, population patch clamp on CHO cells stably expressing hERG
Sequence (Q12809 whole entry, looked up): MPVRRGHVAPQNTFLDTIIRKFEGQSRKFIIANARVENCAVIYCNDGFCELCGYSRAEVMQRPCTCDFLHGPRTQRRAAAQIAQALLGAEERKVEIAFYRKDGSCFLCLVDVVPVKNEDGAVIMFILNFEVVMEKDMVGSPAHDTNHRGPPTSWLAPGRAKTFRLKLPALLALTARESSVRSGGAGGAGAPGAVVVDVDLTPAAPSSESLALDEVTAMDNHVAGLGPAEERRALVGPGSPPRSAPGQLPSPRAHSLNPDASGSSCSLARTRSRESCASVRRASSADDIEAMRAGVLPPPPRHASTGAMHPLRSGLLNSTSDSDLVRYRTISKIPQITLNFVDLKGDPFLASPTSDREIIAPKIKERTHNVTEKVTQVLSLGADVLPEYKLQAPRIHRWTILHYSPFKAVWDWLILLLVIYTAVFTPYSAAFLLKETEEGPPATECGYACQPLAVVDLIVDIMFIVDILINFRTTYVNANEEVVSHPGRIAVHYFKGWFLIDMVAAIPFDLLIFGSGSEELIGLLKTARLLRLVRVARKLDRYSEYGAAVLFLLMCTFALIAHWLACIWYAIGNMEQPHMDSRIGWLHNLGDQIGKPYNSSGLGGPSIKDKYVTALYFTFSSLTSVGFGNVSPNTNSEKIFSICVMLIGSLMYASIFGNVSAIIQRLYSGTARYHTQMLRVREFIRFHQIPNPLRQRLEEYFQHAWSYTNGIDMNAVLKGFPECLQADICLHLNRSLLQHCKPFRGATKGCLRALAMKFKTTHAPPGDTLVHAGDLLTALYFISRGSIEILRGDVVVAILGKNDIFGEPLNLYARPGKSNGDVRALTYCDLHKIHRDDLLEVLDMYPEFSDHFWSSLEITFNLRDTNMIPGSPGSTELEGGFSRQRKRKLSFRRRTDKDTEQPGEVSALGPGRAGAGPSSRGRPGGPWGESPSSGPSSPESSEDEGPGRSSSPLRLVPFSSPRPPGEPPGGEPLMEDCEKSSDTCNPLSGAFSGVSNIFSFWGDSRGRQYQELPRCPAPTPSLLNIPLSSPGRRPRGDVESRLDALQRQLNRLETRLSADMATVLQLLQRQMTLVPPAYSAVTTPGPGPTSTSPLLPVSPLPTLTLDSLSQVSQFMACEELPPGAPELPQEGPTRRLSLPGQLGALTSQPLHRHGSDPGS

SMILES | hERG current change (%, negative = inhibition) at 1uM [%]
O=C(NCc1cccc(C(F)(F)F)c1)C1CC2Cn3c(nc4ccccc43)C2N1Cc1ccccc1 (centres unmarked) | 6.92
Cn1ncc(Cl)c1C(=O)N1CCC(Cc2ccccc2)CC1 | 0.0461
O=C(NCc1ccco1)c1cc(S(=O)(=O)N2CCOCC2)ccc1Br | 12.1
COc1ccccc1-n1c(Cc2cccs2)n[nH]c1=S | 18.9
CCN(C1CCS(=O)(=O)C1)S(=O)(=O)c1cc(C)ccc1C (centres unmarked) | 2.05
CCOC(=O)c1cn(C2CC2)c2c(F)c(NCCCN(C)C)c(F)cc2c1=O | 15.2
CC1(OC(=O)C2CCCC2)C(=O)C=C2C=C(c3ccsc3)N(CCc3ccccn3)C=C2C1=O (centres unmarked) | 7.11
Cc1ccc(C(=O)NNC(=O)c2cccnc2SCc2cccc([N+](=O)[O-])c2)cc1 | 16.7
CN(C)S(=O)(=O)c1ccc(N2CCCC2)c(C(=O)NCc2cccc(C(F)(F)F)c2)c1 | 17.4
O=C(NC1CCCC1)C(c1c[nH]c2ccccc12)N(C(=O)Cn1nnc(-c2ccc(Cl)cc2)n1)c1ccccc1 (centres unmarked) | 1.15
Cc1ccc(C)c(NC(=O)COC(=O)c2c(C)nn(-c3ccccc3)c2C)c1 | 4.83
COc1cc(/C=C/c2cc[n+](C)cc2)ccc1OCC(=O)Nc1ccccc1.[I-] | 8.71
Cc1cc(C(=O)OCC(=O)N2CC(=O)Nc3ccccc32)c(C)n1-c1ccccc1 | 15.4
COc1ccc(-c2csc(NC(=O)c3ccco3)n2)cc1.Cl | 3.82
COc1ccc(Cl)cc1C(=O)Nc1ccc(NC(=O)c2ccco2)cc1 | 14.5
CNC(=O)NC(O)C(Cl)(Cl)Cl (centres unmarked) | 20.7
Cc1ncc(CO)c(/C=N/Nc2ccc(C(F)(F)F)cn2)c1O | 8.09
Cn1ncc2c(NCc3ccccc3)nc(NCCCO)nc21 | 10.9
O=S(=O)(Cc1nnnn1-c1ccccc1)c1ccc(F)cc1 | 0.494

SMILES | hERG current change (%, negative = inhibition) at 1uM [%]
Clc1ccc(-n2nnnc2Sc2ncnc3sccc23)cc1 | 10.9
Cc1ccsc1CNC12CC3CC(CC(C3)C1)C2.Cl | 14.4
Cc1c(C(=O)N2CCN(C(c3ccccc3)c3ccccc3)CC2)oc2ccccc12 | 15.8
Cc1ccc(Nc2nc(Cl)c(C=O)s2)cc1 | -10.9
O=C(c1ccccc1)c1ccc(Oc2ccc(C(=O)O)c(C(=O)O)c2)cc1 | 11.9
Cc1cc(C)nc(SCC(=O)NN)n1 | 12.7
Cc1cccc(NC2SC(=O)NC2=O)c1 (centres unmarked) | 6.83
CCOCCCNCc1ccc(OC)c(OC)c1.O=C(O)C(=O)O | 8.45
O=C(CN1C(=O)NC2(CCCC2)C1=O)Nc1cc(C(F)(F)F)ccc1N1CCCCC1 | 7.93
C=CCNC(=O)c1ccc(C2SCC(=O)N2Cc2ccco2)cc1 (centres unmarked) | -4.36
N#CCn1cc(/C=N/NC(=O)c2cc3c(ccc4ccccc43)o2)c2ccccc21 | 11.3
O=C(NCc1ccc(Cl)cc1)c1cnccn1 | 6.08
CCOc1ccccc1N1CCN(S(=O)(=O)c2cccc3nsnc23)CC1 | -10.2
O=C1CN(C(=O)COC(=O)c2ccc[n+]([O-])c2)c2ccccc2N1 | 13
Cc1cccc(Nc2ccc([N+](=O)[O-])cn2)c1 | 7.32
NC(=O)c1ccccc1OCC(=O)Nc1ccc(Cl)c(Cl)c1 | 7.8
CN(C)S(=O)(=O)c1ccc(C(=O)N2CCN(C(=O)C3CCCO3)CC2)cc1 (centres unmarked) | 9.98
O=C(CSc1nnc(-c2ccncc2)n1Cc1ccco1)N1c2ccccc2Sc2ccc(Cl)cc21 | 8.3
CC(=O)NS(=O)(=O)c1ccc(NC(=O)CC23CC4CC(CC(Br)(C4)C2)C3)cc1 | 21.7

SMILES | hERG current change (%, negative = inhibition) at 1uM [%]
Cn1ncc(C(N)=O)c1NC(=S)NC(=O)c1ccc(Br)o1 | 14.3
COc1ccc(C(=O)N2CCC(C(=O)Nc3ccc(OC)c(OC)c3)CC2)cc1 | 10.7
CCOC(=O)C1=NNC2C(=O)N(Cc3ccccc3)C(=O)C12 (centres unmarked) | 8.04
CCN(CC)c1ccc(S(=O)(=O)N2CCOCC2)cc1NC(=O)CSc1ccccc1 | 10.5
O=C(c1cccc(Cl)c1)N1CCN(Cc2ccccc2F)CC1 | 14.6
CSc1ccc(S(=O)(=O)NCC(=O)OCC(=O)N2CCCC2=O)cc1[N+](=O)[O-] | 1.29
O=C(O)CCCCCCCCc1cn(CN2C(=O)c3ccccc3C2=O)nn1 | 9.38
Nc1nc(-c2ccccc2)c(-c2ccccc2)o1 | 12
Cc1nn(-c2ccccc2)c(Cl)c1/C=N/Nc1nnc(C)c(=O)[nH]1 | 9.84
CCOC(=O)N1CCc2c(sc3[nH]c(=S)[nH]c(=S)c23)C1 | 12.6
CCOc1ccc(OCC(=O)OCc2cc(=O)n3cc(Br)ccc3n2)cc1 | 8.5
CCOc1ccc(NC(=O)CSc2nnnn2C2CC2)cc1S(=O)(=O)N1CCCC1 | 5.29
COc1ccccc1Cn1c(-c2ccccc2OC)nc2ccccc21 | 9.13
O=C(Nc1ccc(F)cc1)c1cccc(N2C(=O)C3C4C=CC(C5CC45)C3C2=O)c1 (centres unmarked) | 4.83
CCOC(=O)c1c(-c2cccs2)csc1NC(=O)CSc1ncn[nH]1 | 10.2
O=C(NCC1CCCO1)c1nn2c(C(F)(F)F)cc(-c3ccc(Br)o3)nc2c1Br (centres unmarked) | 2.69
Cc1ccc(CNC(=O)c2ccccc2NC(=O)CN2CCN(C)CC2)cc1 | -24.7
O=C(Nc1ccc(OC(F)F)c(Cl)c1)c1cccc(OC(F)F)c1 | -31.6
